US20220125947A1

target: TCR Vδ2 (TRDV2) (human), A0JD36; assay: cell-based or functional assay
Sequence (A0JD36 20-115, stated change not applied): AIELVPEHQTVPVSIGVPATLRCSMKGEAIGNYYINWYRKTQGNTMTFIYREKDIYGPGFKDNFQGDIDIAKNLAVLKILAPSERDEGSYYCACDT

CD25+ (Vg9+ cells), flow staining	CD71+ (Vg9+ cells), flow staining	Granzyme B (Luminex, supernatant)	IFNγ (Luminex, supernatant)	IL6 (Luminex, supernatant)	TNFα (Luminex, supernatant)	Vg9 T cell %, flow staining	Granzyme B, Luninex (supernatant)	IFNγ, Luninex (supernatant)	IL6, Luninex (supernatant)	Binder
29.7%	91.3%	6030	1240	379	687	6.4%	–	–	–	VG9B383 (antibody, human IgG1, lambda) heavy: QVQLQESGPGLVKPSETLSLTCTVSSGSISSYYWNWIRQPAGKGLEWVGRIYTIGNTNYNPSLKSRVTMSIDTSKNQFSLNLSSVTAADTAVYFCAREGYYDSSGSFFPGAFGIWGQGTMVTVSS[human IgG1 constant region omitted here] light: SSELTQPASVSGSPGQSITISCTGTSNDVGSYNLVSWYQQHPGKAPKLMIYAGSKRPSGISNRFSGSKSGNTASLTISGLQAEDEADYYCCSFAGATNVVFGGGTKLTVLGQPKAAPSVTLFPPSSEELQANKATLVCLISDFYPGAVTVAWKADSSPVKAGVETTTPSKQSNNKYAASSYLSLTPEQWKSHRSYSCQVTHEGSTVEKTVAPTECS
28.7%	94%	–	–	–	–	3.6%	1470	795	126	VG9B465 (antibody, human IgG1, lambda) heavy: QVQLQQSGPGLVKPSETLSLTCTVSGGSITSYYWNWIRQPAGKGLEWIGRIYTIGNTNYNPSLKSRVTMSIDTSKHQFSLKLSSVTGADTAVYYCAREGYYESDGSFFPGAFNIWGQGTMVTVSS[human IgG1 constant region omitted here] light: SSELTQPASVSGSPGQSITISCTGTSNDVGSYNLVSWYQQHPGKAPKLMIYAGSKRPSGISNRFSGSKSGNTASLTISGLQAEDEADYYCCSYAGTTNVVFGGGTKVTVLGQPKAAPSVTLFPPSSEELQANKATLVCLISDFYPGAVTVAWKADSSPVKAGVETTTPSKQSNNKYAASSYLSLTPEQWKSHRSYSCQVTHEGSTVEKTVAPTECS
43.5%	92.6%	2230	828	554	3660	2.3%	–	–	–	VG9B470 (antibody, human IgG1, kappa) heavy: QVTLKESGPTLVKPTQTLTLTCTFSGFSLTTSGVGVGWIRQPPGKALEWLALILWNDHTIYSPSLKSRLTITKDTSKNQVVLTMTNMDPVDTAAYFCARDKWELRDAFDIWGQGTMVTVSS[human IgG1 constant region omitted here] light: EIVMTQSPSFLSASVGDRVTFTCRASQGISRYLAWYQQKPGRAPNLLIYVASTLQSGVPSRFSGSGSGTEFTLTISSLLPEDFATYYCQQLISYPYTFSQGTRLEIKRTVAAPSVFIFPPSDEQLKSGTASVVCLLNNFYPREAKVQWKVDNALQSGNSQESVTEQDSKDSTYSLSSTLTLSKADYEKHKVYACEVTHQGLSSPVTKSFNRGEC
21.8%	89.4%	987	225	77	460	4.2%	–	–	–	VG9B201 (antibody, human IgG1, lambda) heavy: QVTLKESGPTLVKPTQTLTLTCTFSGFSLTTHGVGVGWIRQPPRKALEWLALIYWNADKHYSPSLKSRLTITKDTSKNQVVLTMTHMDPVDTATYYCAHEGDWGHYFDFWGQGTLVTVSS[human IgG1 constant region omitted here] light: QLVLTQPPSVSAAPGQKVTISCSGSSSNIGNNDVSWYQQLPGTAPKLLIYDNNRRPSGIPDRFSGSKSGTSATLGITGLQTGDEADYYCETWDSSLSAIWVFGGGTKVTVLGQPKAAPSVTLFPPSSEELQANKATLVCLISDFYPGAVTVAWKADSSPVKAGVETTTPSKQSNNKYAASSYLSLTPEQWKSHRSYSCQVTHEGSTVEKTVAPTECS
53.7%	98.3%	–	–	–	–	9.7%	3900	1080	731	VG9B114 (antibody, human IgG1, kappa) heavy: EVQLVESGGDLVQPGGSLRLSCAASGFTFSRYDMHWVRQATGKGLEWVSAIGSAGDTYYPGSVKGRFTISRENAKNSLYLQMNSLRAGDTAVYYCARGKWELRDAFDIWGQGTMVTVSS[human IgG1 constant region omitted here] light: DIVMTQSPSFLSASVGDRVTITCRASQGIHSYLAWYQQKPGKAPKLLIYVASTLQSGVPSRFSGSRSGTEFTLTISSLQPEDFATYYCQQLNSYPYTFGQGTKLEIKRTVAAPSVFIFPPSDEQLKSGTASVVCLLNNFYPREAKVQWKVDNALQSGNSQESVTEQDSKDSTYSLSSTLTLSKADYEKHKVYACEVTHQGLSSPVTKSFNRGEC
22.8%	88.6%	–	–	–	–	2.4%	768	60	117	VG9B177 (antibody, human IgG1, lambda) heavy: QVQLQESGPGLVKPSETLSLTCTVSGGSINNYFWSWIRQPPGKGLEWIGYIFYSGSTNYNPSLKSRVTISIDTSKNQFSLKVNSVTAADTAVYYCARVGKWELRTAFDIWGQGTMVTVSS[human IgG1 constant region omitted here] light: QSALTQPASVSGSPGQSITISCTGTSSDVADYNYVSWYQQHPGKAPKLMIYEVSNRPSGVSNRFSGSKSGNTASLTISGLQAEDEADYYCCSYTSSFTVVFGGGTKVTVLGQPKAAPSVTLFPPSSEELQANKATLVCLISDFYPGAVTVAWKADSSPVKAGVETTTPSKQSNNKYAASSYLSLTPEQWKSHRSYSCQVTHEGSTVEKTVAPTECS
44.7%	92.7%	1390	531	–	–	2.7%	–	–	–	VG9B396 (antibody, human IgG1, lambda) heavy: EVQLVESGPGLVQPSETLSLTCTVSGDSIRGYYWNWIRQPAGKGLEWIGRIFTTGNTNYNPSLKSRLTMSLDTSKNQFSLKLNSVTAADTAVYYCAREKWDSSSSALYFDFWGQGTLVTVSS[human IgG1 constant region omitted here] light: QSVLTQAPSVSGAPGQRVTISCTGSSSNIGADYDVKWYQQLPGTAPKLLIYGNTDRPSGVPDRFSGSKSGTSASLAITGLQAEDEADYYCQSYDSRLTGYVVFGGGTKLTVLGQPKAAPSVTLFPPSSEELQANKATLVCLISDFYPGAVTVAWKADSSPVKAGVETTTPSKQSNNKYAASSYLSLTPEQWKSHRSYSCQVTHEGSTVEKTVAPTECS
32.7%	93.9%	1640	440	46	49	6%	–	–	–	VG9B382 (antibody, human IgG1, lambda) heavy: QVQLQESGPGLVKPSETLSLTCTVSGDSISGYYWNYIRQPAGKGLDWIGRIFTTGNTNYNPSLKSRVTMSVDTSKNQFSLKLTSVTAADTAVYYCARERWDSSSSALYFDYWGQGTLVTVSS[human IgG1 constant region omitted here] light: QSVLTQPPSVSGAPGQRVTISCTGSSSNIGADYDIKWYQQLPGTAPKLLIYGNSNRPSGVPDRFSGSKSGTSVSLAITGLQAEDEADYYCQSYDSSMSGYVVFGGGTKLTVLGQPKAAPSVTLFPPSSEELQANKATLVCLISDFYPGAVTVAWKADSSPVKAGVETTTPSKQSNNKYAASSYLSLTPEQWKSHRSYSCQVTHEGSTVEKTVAPTECS
16.8%	91.7%	–	–	–	–	3.8%	618	68	31	VG9B208 (antibody, human IgG1, lambda) heavy: QVQLQESGPGLVKPSETLSLTCTVSGGSISGYYWSWIRQPPGKGLELIGYIFYSGSINYNPSLKNRVTISLDTSKNQFSLKLTSVTAADTAVYYCARVGKWELRSSFDIWGQGTMVTVSS[human IgG1 constant region omitted here] light: QSVLTQPPSVSAAPGQKVTISCSGSTSNIGNNDVSWYQQLPGTAPKLLIYDNNKRPSGIPDRFSGSKSGTSATLGITGLQTGDEADYYCGTWDSSLSVWVFGGGTKLTVLGQPKAAPSVTLFPPSSEELQANKATLVCLISDFYPGAVTVAWKADSSPVKAGVETTTPSKQSNNKYAASSYLSLTPEQWKSHRSYSCQVTHEGSTVEKTVAPTECS
17%	82.6%	–	–	–	–	3.7%	316	44	40	VG9B194 (antibody, human IgG1, lambda) heavy: EVQLLESGAEVKKPGASVKVSCKASGYTFTGDYMHWVRQAPGQGLEWMGWINPNSGYTNNAEKFQGRVTMTRDTSISTAYMELSRLSSDDTAVYYCTRELDALDVWGQGTMVTVSS[human IgG1 constant region omitted here] light: QSVLTQPPSASGSPGQSVTISCTGTSSDVGGYNYVSWYQQHPGKAPKLMIYEVSKRPSGVPDRFSGSKSGNTASLTVSGLQAEDEADYYCNSYAGSNNFEVFGGGTKVTVLGQPKAAPSVTLFPPSSEELQANKATLVCLISDFYPGAVTVAWKADSSPVKAGVETTTPSKQSNNKYAASSYLSLTPEQWKSHRSYSCQVTHEGSTVEKTVAPTECS
32.9%	94.5%	–	–	–	–	4.5%	652	154	117	VG9B87 (antibody, human IgG1, kappa) heavy: QVQLVESGAEVKKPGASVKVSCKASGYTFTSEYIHWVRQAPGQGLEWMGIINPSGGSTSYAQRFQGRVTMTRDTSTSTVYMEVNSLRSEDTAVYYCARERGYSYGSFDYWGQGTLVTVSS[human IgG1 constant region omitted here] light: EIVLTQSPSFLSASAGDRVTITCRASQGISSYLAWYQQKPEKAPKLLIYAASTLQSGVPSRFSGSGSGTEFTLTISSLQPEDFATYYCQQFNSYSLTFGGGTKLEIKRTVAAPSVFIFPPSDEQLKSGTASVVCLLNNFYPREAKVQWKVDNALQSGNSQESVTEQDSKDSTYSLSSTLTLSKADYEKHKVYACEVTHQGLSSPVTKSFNRGEC

same assay, conditions: not given

TNFα, Luninex (supernatant)	Binder
132	VG9B465 (antibody, human IgG1, lambda) heavy: QVQLQQSGPGLVKPSETLSLTCTVSGGSITSYYWNWIRQPAGKGLEWIGRIYTIGNTNYNPSLKSRVTMSIDTSKHQFSLKLSSVTGADTAVYYCAREGYYESDGSFFPGAFNIWGQGTMVTVSS[human IgG1 constant region omitted here] light: SSELTQPASVSGSPGQSITISCTGTSNDVGSYNLVSWYQQHPGKAPKLMIYAGSKRPSGISNRFSGSKSGNTASLTISGLQAEDEADYYCCSYAGTTNVVFGGGTKVTVLGQPKAAPSVTLFPPSSEELQANKATLVCLISDFYPGAVTVAWKADSSPVKAGVETTTPSKQSNNKYAASSYLSLTPEQWKSHRSYSCQVTHEGSTVEKTVAPTECS
7000	VG9B114 (antibody, human IgG1, kappa) heavy: EVQLVESGGDLVQPGGSLRLSCAASGFTFSRYDMHWVRQATGKGLEWVSAIGSAGDTYYPGSVKGRFTISRENAKNSLYLQMNSLRAGDTAVYYCARGKWELRDAFDIWGQGTMVTVSS[human IgG1 constant region omitted here] light: DIVMTQSPSFLSASVGDRVTITCRASQGIHSYLAWYQQKPGKAPKLLIYVASTLQSGVPSRFSGSRSGTEFTLTISSLQPEDFATYYCQQLNSYPYTFGQGTKLEIKRTVAAPSVFIFPPSDEQLKSGTASVVCLLNNFYPREAKVQWKVDNALQSGNSQESVTEQDSKDSTYSLSSTLTLSKADYEKHKVYACEVTHQGLSSPVTKSFNRGEC
99	VG9B177 (antibody, human IgG1, lambda) heavy: QVQLQESGPGLVKPSETLSLTCTVSGGSINNYFWSWIRQPPGKGLEWIGYIFYSGSTNYNPSLKSRVTISIDTSKNQFSLKVNSVTAADTAVYYCARVGKWELRTAFDIWGQGTMVTVSS[human IgG1 constant region omitted here] light: QSALTQPASVSGSPGQSITISCTGTSSDVADYNYVSWYQQHPGKAPKLMIYEVSNRPSGVSNRFSGSKSGNTASLTISGLQAEDEADYYCCSYTSSFTVVFGGGTKVTVLGQPKAAPSVTLFPPSSEELQANKATLVCLISDFYPGAVTVAWKADSSPVKAGVETTTPSKQSNNKYAASSYLSLTPEQWKSHRSYSCQVTHEGSTVEKTVAPTECS
22	VG9B208 (antibody, human IgG1, lambda) heavy: QVQLQESGPGLVKPSETLSLTCTVSGGSISGYYWSWIRQPPGKGLELIGYIFYSGSINYNPSLKNRVTISLDTSKNQFSLKLTSVTAADTAVYYCARVGKWELRSSFDIWGQGTMVTVSS[human IgG1 constant region omitted here] light: QSVLTQPPSVSAAPGQKVTISCSGSTSNIGNNDVSWYQQLPGTAPKLLIYDNNKRPSGIPDRFSGSKSGTSATLGITGLQTGDEADYYCGTWDSSLSVWVFGGGTKLTVLGQPKAAPSVTLFPPSSEELQANKATLVCLISDFYPGAVTVAWKADSSPVKAGVETTTPSKQSNNKYAASSYLSLTPEQWKSHRSYSCQVTHEGSTVEKTVAPTECS
276	VG9B194 (antibody, human IgG1, lambda) heavy: EVQLLESGAEVKKPGASVKVSCKASGYTFTGDYMHWVRQAPGQGLEWMGWINPNSGYTNNAEKFQGRVTMTRDTSISTAYMELSRLSSDDTAVYYCTRELDALDVWGQGTMVTVSS[human IgG1 constant region omitted here] light: QSVLTQPPSASGSPGQSVTISCTGTSSDVGGYNYVSWYQQHPGKAPKLMIYEVSKRPSGVPDRFSGSKSGNTASLTVSGLQAEDEADYYCNSYAGSNNFEVFGGGTKVTVLGQPKAAPSVTLFPPSSEELQANKATLVCLISDFYPGAVTVAWKADSSPVKAGVETTTPSKQSNNKYAASSYLSLTPEQWKSHRSYSCQVTHEGSTVEKTVAPTECS
674	VG9B87 (antibody, human IgG1, kappa) heavy: QVQLVESGAEVKKPGASVKVSCKASGYTFTSEYIHWVRQAPGQGLEWMGIINPSGGSTSYAQRFQGRVTMTRDTSTSTVYMEVNSLRSEDTAVYYCARERGYSYGSFDYWGQGTLVTVSS[human IgG1 constant region omitted here] light: EIVLTQSPSFLSASAGDRVTITCRASQGISSYLAWYQQKPEKAPKLLIYAASTLQSGVPSRFSGSGSGTEFTLTISSLQPEDFATYYCQQFNSYSLTFGGGTKLEIKRTVAAPSVFIFPPSDEQLKSGTASVVCLLNNFYPREAKVQWKVDNALQSGNSQESVTEQDSKDSTYSLSSTLTLSKADYEKHKVYACEVTHQGLSSPVTKSFNRGEC
